The whole screen tested about 310,000 compounds, of which about 14,000 (4.5%) showed an effect of 50% or more. The effect is printed as a negative number. The list shows a part of the results.

This is an account of results in paper PMC4336329 (PLoS ONE, 2015).
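Also: peak tail current of the secondary pulse compared with the same well before compound.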

The assay deals with human ether-à-go-go-related gene (hERG) potassium channel (human, UniProt Q12809). The experiment in a line: primary screen, population patch clamp on CHO cells stably expressing hERG.
Chain of human ether-à-go-go-related gene (hERG) potassium channel (Q12809 whole entry, looked up): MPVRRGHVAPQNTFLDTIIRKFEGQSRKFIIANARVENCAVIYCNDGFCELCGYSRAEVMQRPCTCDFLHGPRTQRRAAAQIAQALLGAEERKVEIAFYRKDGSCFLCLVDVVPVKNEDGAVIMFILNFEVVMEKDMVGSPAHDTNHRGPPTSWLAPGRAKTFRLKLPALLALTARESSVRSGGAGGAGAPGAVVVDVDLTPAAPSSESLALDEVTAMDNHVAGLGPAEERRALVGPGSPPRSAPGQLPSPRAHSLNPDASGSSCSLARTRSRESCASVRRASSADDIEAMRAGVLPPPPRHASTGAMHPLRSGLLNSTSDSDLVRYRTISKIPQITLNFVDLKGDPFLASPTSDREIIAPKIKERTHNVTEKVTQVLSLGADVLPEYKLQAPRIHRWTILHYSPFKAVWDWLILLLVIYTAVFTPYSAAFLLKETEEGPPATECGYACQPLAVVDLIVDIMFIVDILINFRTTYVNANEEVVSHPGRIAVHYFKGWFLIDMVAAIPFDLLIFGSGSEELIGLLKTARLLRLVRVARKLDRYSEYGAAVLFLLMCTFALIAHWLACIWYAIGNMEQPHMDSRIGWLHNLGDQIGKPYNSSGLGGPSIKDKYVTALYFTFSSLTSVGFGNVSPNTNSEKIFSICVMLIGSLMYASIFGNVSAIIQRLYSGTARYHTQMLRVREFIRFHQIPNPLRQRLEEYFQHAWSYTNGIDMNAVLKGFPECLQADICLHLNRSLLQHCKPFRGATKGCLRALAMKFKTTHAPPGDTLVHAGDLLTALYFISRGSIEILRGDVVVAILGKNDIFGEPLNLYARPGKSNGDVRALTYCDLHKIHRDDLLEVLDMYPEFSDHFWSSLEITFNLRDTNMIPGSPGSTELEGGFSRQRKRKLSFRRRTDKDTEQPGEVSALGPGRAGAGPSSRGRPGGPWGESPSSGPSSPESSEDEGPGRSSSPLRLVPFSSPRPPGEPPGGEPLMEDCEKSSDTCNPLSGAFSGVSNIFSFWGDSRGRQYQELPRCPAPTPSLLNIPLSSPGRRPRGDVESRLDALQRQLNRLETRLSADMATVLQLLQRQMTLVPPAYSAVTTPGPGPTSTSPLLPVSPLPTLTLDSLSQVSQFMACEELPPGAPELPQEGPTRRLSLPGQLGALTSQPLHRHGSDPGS
On to `COc1cc(N2C(=O)CSC2=S)cc(OC)c1OC`, for which the “hERG current change (%, negative = inhibition) at 10uM” value stood at 4.66%.
The result for `CC(=O)Nc1ccc(NC(=O)CSc2nc3ccccc3nc2N2CCCCC2)cc1` reads 7.89%; that for `O=C(CN1CCC(Cc2ccccc2)CC1)NC(=O)NC1CCCCC1`, -39.6%; that for `CC(C)(C)C(=O)C[n+]1ccccc1.[Br-]`, 11.8%.
With `COc1ccccc1N1CCN(/N=C/c2cc(OC)c(O)c(OC)c2)CC1` the figure was -28.7%; with `CCOC(=O)COc1ccc2c(C)cc(=O)oc2c1C(=O)c1ccccc1`, -20.7%.
Regarding `COc1cc2ccccc2cc1C(=O)Nc1ccccc1C`, the “hERG current change (%, negative = inhibition) at 10uM” value was 17.1%.
For the compound `Cc1cccc(C(=O)Nc2ccccc2C(=O)OCC(=O)Nc2ccc(C#N)cc2)c1`, the “hERG current change (%, negative = inhibition) at 10uM” value is recorded as -8.69%.
With `COc1cccc(Sc2ccccc2CN(C)C)c1.Cl` the figure was -13%; with `O=C(c1ccco1)N1CCN(Cc2nc(Cc3ccccc3)no2)CC1`, -8.87%; with `COc1ccc(/C=N/NC(=O)c2nnn(-c3nonc3N)c2-c2cccs2)c(OC)c1`, 13.1%.
`COc1cccc2c1OC1(C)CC2NC(=O)N1c1cccc(C(=O)N2CCN(c3ccccc3)CC2)c1` (stereo not shown): the “hERG current change (%, negative = inhibition) at 10uM” value came to 9.75%.
The result for `COc1ccc(CC(C)N2CCN(Cc3ccccc3)CC2)cc1OC` (stereo not shown) reads -33.1%.
With `COc1ccc(CNC(=O)N2CCN(c3ccccc3OC)CC2)cc1` the figure was 0.951%; with `CC1=NNC(=O)C1CC(=O)N/N=C(\C)c1cccs1` (stereo not shown), 17.4%; with `CCCn1c(N)c(Sc2ccccc2)c(=O)n(CCC)c1=O`, -7.71%.
In the case of `CC(C)Nc1nnc(SCc2cc(=O)n3ccsc3n2)s1`, the “hERG current change (%, negative = inhibition) at 10uM” value came out at 6.88%.
The result for `COC(=O)CCC(=O)N1CCCC(CO)(Cc2ccccc2C)C1` (stereo not shown) reads 16.9%; that for `O=C(COc1ccccc1O)NCCN1CCOCC1`, 25.3%; that for `Cc1c(C#N)c(O)n(CCO)c(=O)c1N=Nc1ccc2c(c1)COC2=O`, 0.9%.
Regarding `COc1ccc(OCCC(=O)OCC(=O)Nc2ccc(S(=O)(=O)N3CCOCC3)cc2)cc1`, the “hERG current change (%, negative = inhibition) at 10uM” value stood at 72.7%.
For the compound `Cc1cs/c(=N\N=C2CCCCC2)n1Cc1ccco1`, the “hERG current change (%, negative = inhibition) at 10uM” value came to 33.7%.
The result for `O=C(/C=C/c1c(F)cccc1Cl)Nc1ccc(S(=O)(=O)Nc2ncccn2)cc1` reads 14.8%; that for `Cc1ccc(-n2c(O)c(/C=N/Nc3ccc(S(=O)(=O)N4CCOCC4)cc3[N+](=O)[O-])c3ccccc3c2=O)c(C)c1`, 5.7%; that for `COc1ccc(CCNC(=O)c2ccc(CSc3ccccc3)o2)cc1`, -7.13%.
`Cc1nc2c(C(=O)NCc3ccco3)cnn2c(C)c1Cc1ccc(F)cc1Cl`: the “hERG current change (%, negative = inhibition) at 10uM” value is -5.06%.
The result for `CCOC(=O)C(C)NC(=O)CCc1nnc2ccc(N3CCC(C)CC3)nn12` (stereo not shown) reads 12.3%; that for `O=C(O)c1cccc(-n2cccc2/C=C\[N+](=O)[O-])c1`, 33.7%.
In the case of `c1ccn2c(SCc3ccc4c(c3)OCO4)nnc2c1`, the “hERG current change (%, negative = inhibition) at 10uM” value came to 11.9%.
The result for `CCn1c(C)[n+](CC)c2ccc(S(=O)(=O)N(C)C)cc21.[I-]` reads 26.9%; that for `COc1cc(/C=C/C(C)=O)cc(OC)c1OC`, 2.53%.
Consider `O=C1c2ccccc2NC(c2ccccc2)N1NS(=O)(=O)c1ccccc1` (stereo not shown), for which the “hERG current change (%, negative = inhibition) at 10uM” value is listed as 5.62%.
As for `O=C(NCc1cccc(Cl)c1)c1ccncc1`, the “hERG current change (%, negative = inhibition) at 10uM” value came out at 2.66%.
In the case of `Cc1ccc2[nH]c3c(c2c1)CN(C(=O)CN1CCN(C(=O)c2ccco2)CC1)CC3`, the “hERG current change (%, negative = inhibition) at 10uM” value is -5.97%.
For `COc1cccc2c(=O)c(SC(F)(F)C(F)C(F)(F)F)c(C)[nH]c12` (stereo not shown), the “hERG current change (%, negative = inhibition) at 10uM” value is given as -18.1%.
With `COc1ccccc1NC(=O)C(C)OC(=O)/C=C/c1ccc2ccccc2n1` (stereo not shown) the figure was -7.77%; with `O=C1NC(=O)N(c2ccc(Br)cc2)C(=O)/C1=C/c1ccsc1`, 15.5%.
For `Cc1ccc2oc(-c3ccccc3)nc2c1`, the “hERG current change (%, negative = inhibition) at 10uM” value is listed as 11.3%.
Take `CCN(Cc1ccccc1)S(=O)(=O)c1ccc(S(=O)(=O)N(Cc2ccccn2)Cc2ccco2)cc1`: the “hERG current change (%, negative = inhibition) at 10uM” value is 18.6%.
The result for `COc1ccc(NC(=O)C2CC(=O)N/C(=N/N=C/c3ccccc3)S2)cc1` (stereo not shown) reads 10.4%; that for `CS(=O)(=O)N1CCCC(C(=O)NCc2ccccc2Cl)C1` (stereo not shown), 3.96%.
With `O=C(Nc1ccc(OC(F)F)cc1)c1ncc(Cl)c(Cl)c1Cl` the figure was 1.63%.
For the compound `Cc1cccc(C)c1-n1cccc1/C=C1/C(=N)N2C(=NC1=O)SN=C2S(C)(=O)=O`, the “hERG current change (%, negative = inhibition) at 10uM” value is -1.11%.
